The source of these data is PubChem BioAssay AID1508623 (National Center for Advancing Translational Sciences (NCATS), 2021).

Among all 48,000 compounds or so, about 450 (0.94%) were called active. About 19% were inconclusive and are not listed. Calls follow the shape of the dose curve; as a rule, active = well fitted inhibition curve with a large enough effect; inconclusive = small, poorly fitted or top-dose-only effect; inactive = no such curve, though single readings can be large or run the other way. The list shows a part of the results.

This assay is described as follows: Primary qHTS for Identification of Small Molecule Inhibitors of Huntingtin Promoter Activity. Also: nearly all actives have a fitted effect of over 50% in size. To be noted: HEK293 HTT promoter firefly luciferase reporter (activity 0% = vehicle and -100% = no light), 24 h; series mostly up to 57.5 µM; activity change, negative = inhibition: at the top concentration. The method in brief: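 HEK293 cells carrying firefly luciferase reporters were seeded at 2,500 per well in Opti-MEM and cultured for 24 h. They were then treated with compounds at up to 57.5 uM final for 24 h at 37 degrees C before Dual-Glo luminescence readout.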
`Cc1cccc(C)c1OCC(=O)N(Cc1ccccc1F)C1CCS(=O)(=O)C1` (stereo not drawn): the “activity change, negative = inhibition” value is inactive: -6.23%.
Then `CCc1ccc(NC(=O)c2sc(-n3nc(C)c(CCC(C)C)c3C)nc2C)cc1`, with inactive: -10.2%; and `CCn1c2ccccc2c2nnc(N3CCN(c4cccc(Cl)c4)CC3)nc21`, with inactive: 6.76%.
As to `CCOC(=O)c1c(C)[nH]c(CCC(=O)NCc2ccc(OC)c(OC)c2)c1C`, the “activity change, negative = inhibition” value is inactive: 2.51%.
To `CC(Cc1ccc(O)c(O)c1)(NN)C(=O)O` (stereo not drawn) belongs inactive: 3.39%; to `COc1ccc(CNC(=O)Cc2c(C)c3cc4c(C)coc4cc3oc2=O)cc1`, inactive: -9.15%.
Turning to `Cc1ccc(N2CCn3c2nc2c3c(=O)n(C/C=C/c3ccccc3)c(=O)n2C)cc1C`, the “activity change, negative = inhibition” value is inactive: 12.4%.
As to `CCc1ccc(NC(=O)CCc2c(C)nc3nc(-c4cc(OC)cc(OC)c4)nn3c2C)cc1`, the “activity change, negative = inhibition” value was inactive: -14.1%.
Then `Cc1cc(NS(=O)(=O)c2ccc(N)cc2)nc(C)n1`, with inactive: 1.19%.
Then `COc1ccccc1-c1c(C)nn2c(-c3ccccc3)cc(-c3ccccc3)nc12`, with inactive: -14.8%; and `CCOc1ccc(C2=NC(c3ccncc3)=Nc3ccc(C)cc3N2)cc1OCC`, with inactive: -25.6%.
To `COCc1cc(C)nc2sc(C(=O)Nc3ccccc3O)c(N)c12` belongs inactive: 59%.
On to `Cc1ccc(OCCn2cc(C(=O)c3cccs3)c3ccccc32)cc1`, for which the “activity change, negative = inhibition” value was inactive: -28.4%.
To `COc1ccccc1NC(=O)C1=C(C)Nc2c(C(=O)Nc3ccc(C)cc3)cnn2C1c1cccc(OC)c1OC` (stereo not drawn) belongs inactive: 13.7%; to `Cc1ccccc1NC(=O)c1cc2c(-c3ccccc3)nn(-c3ccccc3)c2s1`, inactive: -10.9%.
With `Cc1ccsc1/C=C/C1=NCCCN1C`, the “activity change, negative = inhibition” value was inactive: 8%.
Then `Cc1cccc(N2CCN(C(=O)Cn3nc(C)c4sc5ccccc5c4c3=O)CC2)c1C`, with inactive: -4.37%; and `COc1ccc(CNC(=O)Cn2c(=O)nc(-c3ccccc3)c3cc(Cl)ccc32)cc1OC`, with inactive: -4.85%; and `CCc1ccc(NCc2cc3ccc(OC)cc3n(CC(=O)Nc3ccccc3C)c2=O)cc1`, with inactive: -23.8%.
To `CCCCN(CCCC)CCNC(=O)Cn1nc(CC)n2c(cc3sccc32)c1=O` belongs inactive: 11%.
On to `COC(=O)c1ccc(Cl)cc1NC(=O)Nc1nnc(N(C)C2CCCCC2)s1`, for which the “activity change, negative = inhibition” value was inactive: -8.04%.
To `Cc1ccc(CNC(=O)C(NS(=O)(=O)c2cccs2)C(C)C)cc1` (stereo not drawn) belongs inactive: -9.62%.
To `Cc1ccc(CSC2=Nc3ccccc3C3=NC(CCC(=O)NC4CCCCC4)C(=O)N23)cc1` (stereo not drawn) belongs inactive: -7.03%; to `CC(=O)c1cccc(NC(=O)CSc2nc3c(c(=O)[nH]2)CCC3)c1`, inactive: -13.2%.
As for `COc1ccc(-n2nc3ccc(NC(=O)c4c(OC)cccc4OC)cc3n2)cc1`, the “activity change, negative = inhibition” value is inactive: -3.04%.
Then `O=C(Cn1c(=O)n(-c2ccc(F)cc2)c(=O)c2sc3ccccc3c21)NC1CCCC1`, with inactive: -23.4%; and `CCc1ccc2oc(C(=O)Nc3ccccc3OC)cc(=O)c2c1`, with inactive: 23.4% [at 11.5 µM].
Then `CCc1nc2ccccc2n2c(-c3ccc(C)cc3)c3c(=O)n(C)c(=O)n(C)c3c12`, with inactive: -5.38%; and `Cc1cc(C)cc(NC(=O)C2CCCN(S(=O)(=O)c3cccc4nsnc34)C2)c1` (stereo not drawn), with inactive: 1.32%; and `NC(=O)C1CCN(C(=O)c2ccc3c(c2)N(Cc2cccc(Cl)c2)C(=O)c2ccccc2S3=O)CC1` (stereo not drawn), with inactive: -13.9%.
As to `CCOC(=O)c1c(C)[nH]c(C)c1S(=O)(=O)NCC(=O)Nc1ccc(C)cc1C`, the “activity change, negative = inhibition” value is inactive: -19.7%.
To `COc1ccc(CSc2nc3ccncc3n2CC(=O)Nc2cc(C)cc(C)c2)cc1` belongs inactive: 7.37%.
Consider `Cc1csc2nc(COC(=O)CNC(=O)c3ccc(F)cc3)cc(=O)n12`, for which the “activity change, negative = inhibition” value is inactive: 5.71%.
For the compound `Cc1ccc(C(=O)Nc2ccccc2C(=O)OCc2cc(=O)n3nc(C(C)C)sc3n2)cc1`, the “activity change, negative = inhibition” value is inactive: -7.98%.
For the compound `Cc1ccc(C)c(NC(=O)CN(C)S(=O)(=O)c2cccc3cccnc23)c1`, the “activity change, negative = inhibition” value was inactive: -10.7%.
To `Cc1ccc(Cl)cc1N1CCN(CCCNC(=O)Cn2ncc3c([nH]c4ccccc43)c2=O)CC1` belongs inactive: -0.475%; to `Cc1ccc(C)c(NC(=O)CSc2nc(-c3ccccc3)c(C#N)c(=O)[nH]2)c1`, inactive: -15.1%; to `Cc1ccc(CNc2nc3ccc(Cl)cc3n3cnnc23)cc1`, inactive: -15.2%.
On to `COC(=O)c1ccccc1NC(=O)C1=CC(c2ccc3c(c2)OCO3)=NS(=O)(=O)N1C`, for which the “activity change, negative = inhibition” value is inactive: -5.84%.
Then `CCc1cccc(C)c1Nc1c(-c2ccc(SC)cc2)nc2sccn12`, with inactive: 15.2%.
Then `CCOc1ccc(N(C(=O)c2ccc(Cl)cc2)S(=O)(=O)c2ccc3c(c2)n(C)c(=O)n3C)cc1`, with inactive: 5.5%; and `Fc1ccc(-c2noc3ncnc(Nc4ccc(F)cc4F)c23)cc1`, with inactive: -24.9%.
For `Cc1cccc(NC(=O)Cn2c(=O)n(Cc3ccccc3)c(=O)c3sc4ccccc4c32)c1`, the “activity change, negative = inhibition” value was inactive: -24.8%.
On to `CCOc1ccc(CCNC(=O)c2cccc(Nc3nc4ccccc4nc3-n3nc(C)cc3C)c2)cc1OCC`, for which the “activity change, negative = inhibition” value was inactive: -9.47%.
Then `COc1ccc(CCNC(=O)Cn2nnc(-c3ccc(Cl)cc3)n2)cc1OC`, with inactive: 5.37%.
Then `Cc1cccc(NC(=O)CSc2ncc(-c3ccc(Br)cc3)[nH]2)c1`, with inactive: -28.8%; and `O=C(CSc1ccc(-c2cccs2)nn1)Nc1ccccc1`, with inactive: 9.93%; and `Cc1cccc(-c2nc(CCNC(=O)COc3ccccc3)cs2)c1`, with inactive: -3.7%.
To `COc1cccc(CNc2nc3ccccc3c3nc(-c4cccc(C)c4)nn23)c1` belongs inactive: 25.2%.
In the case of `CCN1CCc2nc(N)oc2CC1`, the “activity change, negative = inhibition” value was inactive: 6.12%.
Then `CC(=O)c1cccc(NC(=O)Nc2c(C)n(C)n(-c3ccccc3)c2=O)c1`, with inactive: -24.9%; and `COc1ccc(-c2cc(-c3ccccc3)nc(SCC(=O)Nc3ccccc3C)c2C#N)cc1`, with inactive: -12.1%; and `CCOCCCn1c(SCC(=O)Nc2cc(C)ccc2C)nc2c(oc3ccccc32)c1=O`, with inactive: -6.54%.
Then `COC(=O)c1ccc(NC(=O)CN2CCCN(Cc3ccc(Cl)cc3)S2(=O)=O)cc1`, with inactive: -22.6%; and `CCN1CCc2c(sc(NC(=O)c3ccc(S(=O)(=O)N(CCOC)CCOC)cc3)c2C(N)=O)C1`, with inactive: -2.07%.
To `Cc1ccc(-c2nc3cc(NC(=O)c4cc5ccccc5o4)ccc3o2)cc1Cl` belongs inactive: -14.9% [at 11.5 µM]; to `CN(C)CCNC(=O)c1ccc(-n2c(-c3ccccc3)cc3c2CCCCC3)cc1`, inactive: 12%; to `Cc1ccc(Sc2c(C(=O)NCc3cccc(F)c3)[nH]c3ccccc23)cc1`, inactive: -20.4%.
Consider `CC(NC(=O)CN1C(=O)COc2ccc(S(=O)(=O)N3CCCCCC3)cc21)c1ccccc1` (stereo not drawn), for which the “activity change, negative = inhibition” value was inactive: -18%.
For the compound `Cc1c(C(=O)N(C)C)sc2c1c(=O)n(-c1ccc(Cl)c(Cl)c1)c(=O)n2CC(=O)C(C)(C)C`, the “activity change, negative = inhibition” value is inactive: 2.26%.
Then `COc1ccccc1CNC(=O)CCC(=O)N1CC(C)Sc2ccccc21` (stereo not drawn), with inactive: -34.8%.
To `Cc1cccc(N2CCN(C(=O)CN3C(=O)COc4ccc(S(=O)(=O)N5CCC(C)CC5)cc43)CC2)c1C` belongs inactive: -15.3%; to `COc1ccc(C(=O)Nc2cccc(-c3cn4ccsc4n3)c2)c(OC)c1`, inactive: 39.6%; to `CCc1nn(CC(=O)N2CCC(C)CC2)c(=O)c2cc3occc3n12`, inactive: -9.28%.
With `CCCN(c1ccc(C(C)C)cc1)S(=O)(=O)c1ccc2c(c1)n(C)c(=O)c(=O)n2C`, the “activity change, negative = inhibition” value was inactive: -8.06%.
To `Cc1ccc(-n2nc3c(N4CCC(C(=O)NC5CCC(C)CC5)CC4)nnc(C)c3c2C)cc1` (stereo not drawn) belongs inactive: -15.7%; to `O=C(CCCCCCC(=O)Nc1ccc([C@H]2O[C@@H](CSc3nc(-c4ccccc4)c(-c4ccccc4)o3)C[C@@H](c3ccc(CO)cc3)O2)cc1)NO`, inactive: 64.1%; to `CCC(=O)Oc1cc(C(C)(C)C)cc2cc(-c3nc(-c4ccc(OC)cc4OC)no3)c(=O)oc12`, inactive: -0.522%.
Then `CCOc1ccc(N(CC(=O)Nc2cc(OC)cc(OC)c2)S(=O)(=O)c2c(C)[nH]c(=O)[nH]c2=O)cc1`, with inactive: -17.8% [at 11.5 µM].
Then `O=C(c1cccs1)c1cn(CCOc2ccc(Cl)cc2)c2ccccc12`, with inactive: -33.6%; and `Cc1ccc(C(=O)c2cn(Cc3ccccc3F)c3cc4c(cc3c2=O)OCCO4)cc1`, with inactive: 2.37%.
For the compound `C[N+](C)(C)CCOC(=O)CCC(=O)OCC[N+](C)(C)C`, the “activity change, negative = inhibition” value was inactive: -1.04%.
Then `COc1cccc(C2c3c(oc4cc(C)cc(C)c4c3=O)C(=O)N2CCc2ccc(OC)c(OC)c2)c1` (stereo not drawn), with inactive: -12.7%.
Then `COc1ccccc1CNC(=O)CCC1N=C2c3ccccc3N=C(SCC(=O)Nc3ccc(F)cc3)N2C1=O` (stereo not drawn), with inactive: -4.09%; and `Cc1ccc2c(c1)c1c(c(=O)n(-c3cccc(Cl)c3)c(=O)n1CC(=O)NCCC1=CCCCC1)n2C`, with inactive: -6.16%.
To `COc1ccc(CNc2nc(-c3ccccc3)nn2S(=O)(=O)c2ccccc2)cc1` belongs inactive: -7.68%; to `CN(CC(=O)NCc1ccc(Cl)cc1)S(=O)(=O)c1ccc2[nH]c3c(c2c1)CCCC3`, inactive: -26.6%.
Consider `O=C(Nc1nnc(-c2cc(Cl)ccc2Cl)o1)c1ccc2c(c1)OCCO2`, for which the “activity change, negative = inhibition” value is inactive: -11.4%.
To `CCOC(=O)C1CCC(CN(Cc2ccc(OC)cc2)S(=O)(=O)c2ccc(F)c(C(=O)Nc3ccc(C)c(C)c3)c2)CC1` (stereo not drawn) belongs inactive: -5.01%; to `CCc1ccc(NS(=O)(=O)c2ccc3oc(=O)c4ncn(CC)c4c3c2)cc1`, inactive: -28.5%.
Then `COc1ccc(-n2c(Cc3ccccc3)nnc2SCc2nc(-c3cccs3)no2)cc1`, with inactive: -29.8%; and `O=c1cc(CSc2ncn[nH]2)[nH]c2ccc(F)cc12`, with inactive: 5.49%.
To `CN(C)C1(CNC(=O)COc2ccc([N+](=O)[O-])cc2)CCCCC1` belongs inactive: -14%; to `CCC1CN(C(=O)N2CCC(C(=O)NCCc3cc(OC)ccc3OC)CC2)c2ccccc2O1` (stereo not drawn), inactive: 1.91%; to `CCn1c(CN2CCOCC2)nc2cc(NC(=O)c3ccccc3[N+](=O)[O-])ccc21`, inactive: 6.78%.
Regarding `COc1cccc(-n2cc(C(=O)Nc3cccc(C(F)(F)F)c3)c3ccccc3c2=O)c1`, the “activity change, negative = inhibition” value was inactive: -23.4%.
Then `Cc1ccc(NC(=O)N2CCc3cc(S(=O)(=O)N4CCC(C)CC4)ccc32)cc1`, with inactive: -6.09%; and `CCN(C(=O)Cn1c(=O)n(CCCS(=O)(=O)C2CCCCC2)c(=O)c2ccccc21)c1cccc(C)c1`, with inactive: -2%; and `CC(=O)Nc1cc(-c2nc3cc(Cl)ccc3o2)ccc1C`, with inactive: 36%.
As to `CC1CCN(C(=O)Cn2c(=O)n(CCCCCC(=O)NCc3ccccc3Cl)c(=O)c3sccc32)CC1`, the “activity change, negative = inhibition” value is inactive: -2.43%.
For the compound `Cc1cc(Cl)ccc1NC(=O)Cn1nc(C)c2c(C)n(-c3ccccc3)nc2c1=O`, the “activity change, negative = inhibition” value is inactive: -18.9%.
To `COCCCNc1nc2c(S(=O)(=O)c3ccccc3)nnn2c2ccc(Cl)cc12` belongs inactive: -7.11%; to `O=C(NCc1cccs1)c1nn(-c2ccccc2Cl)nc1CO`, inactive: 1.43%.
